Measured values reported in patent US12116397B2, “IL-IR-I binding polypeptide” (Swedish Orphan Biovitrum AB (publ), priority 2017, dated 2024).

System: TF-1 cells
Assay: In vitro IL-1β neutralization assay (TF-1 cell assay)
Type: cell-based
Details: His6-Z polypeptides, IL-1β inhibition in TF-1 cell assay, Table 20 (Example 9)
Method: The TF-1 cell line proliferates in response to many different cytokines including IL-1β. This cell line was used to assess the ability of primary IL-1R1 binders to inhibit IL-1β actions. TF-1 cells were maintained in RPM11640 with L-glutamine (Lonza) supplemented with 10% FCS (Gibco), Penicillin-Streptomycin (Lonza) and 2 ng/ml rhGM-CSF (R&D Systems). Prior to use, cells were washed twice in RPM11640 without rhGM-CSF. Cells were then counted and dispensed into 96 well flat bottomed plates at a density of 3×10^4 cells per well. In separate plates, serial dilutions of the inhibitory binders; His6-tagged IL-1R-I binding Z variants, with a concentration range of 400-0.1 nM, or the IL-1R-I binding protein Kineret (anakinra, Sobi), with a concentration range of 0.3-0.0003 nM, were incubated in the presence of 0.6 nM IL-1β (PeproTech). The pre-mixed complexes of the Z variant polypeptides and IL-13 were transferred to wells containing TF-1 cells. The cells were stimulated for 72 h at 37° C. in a humidified 5% CO2 atmosphere. During the last four hours of incubation, 19 μl of 2× diluted CCK-8 (Fluka, Sigma Aldrich), was added per well to determine the proliferative responses. The absorbance was measured at 450 nm using a microplate reader (Victor3, Perkin Elmer). The data on cell growth was assessed by non-linear regression to a four-parameter dose-response curve, and the half maximal inhibitory concentration (IC50) was determined using GraphPadPrism program.
(§1) His6-tagged IL-1R-I specific Z variants were tested for their inhibitory capacity in the TF-1 cell assay. The assay was run as described in Example 2. The data on cell growth was assessed by non-linear regression to a four-parameter dose-response curve, and IC50 values were determined using GraphPadPrism program. His6-tagged Z12967 was included for comparison.
as §1, with “Z12967, Z16065, Z16163 and Z18557 were” for “Z12967 was”

B1: Z18814: Z variant differing from Z16065 only in position X5 of the BM (isoleucine) (protein)
chain: AQHDEALEVDAKYAKEVEEIQMEIFALPNLTRRQYTAFIRKLLDDPSQSSELLSEAKKLNDSQAPKVDYVLAEAKVLANRELDKYGVSDYYKNLINNAKTVEGVKALIDEILAALPYVPG
- IC50: 0.4 nM
